Data: the supplement of paper PMC12067093, “Discovery and optimisation of a covalent ligand for TRIM25 and its application to targeted protein ubiquitination” (Chemical Science, 2025)
Targets with the largest changes are over-represented here; the source holds about 21,000 in all.

Compound: CC1Cc2ccccc2N1C(=O)C1CCCN(C1)C(=O)CCl (mixture of isomers) [TRIM25 ligand 11 (diastereomer mixture)]
Assay: probe-labelled cysteine peptide fold change vs DMSO (competition) (log2 fold change); higher = less target engagement (more negative = stronger competition)
Conditions: THP-1, incubation time: 4 h
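Further: competitive chemoproteomic profiling in live THP-1 cells with an iodoacetamide desthiobiotin (IA-DTB) probe, comparing probe-labelled peptide intensities in compound-treated cells against DMSO-treated controls.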

Row | Target | probe-labelled cysteine peptide fold change (10 µM) | probe-labelled cysteine peptide fold change (50 µM)
1 | PNP_P00491_31_HRPQVAIICGSGLGGLTDKLTQAQIFDYGEIPNFPR (UniProt P00491) | -0.69 | -0.229
2 | PRKCD_Q05655_459_ATFYAAEIMCGLQFLHSK (UniProt Q05655) | 0.102 | 0.299
3 | PLOD3_O60568_698_FLRYDCVISSPR (UniProt O60568) | -0.209 | -0.131
4 | POP1_Q99575_481_KPDSVSLHCR (UniProt Q99575) | 0.0851 | 0.0924
5 | PNKP_Q96T60_308_DFSCADR (UniProt Q96T60) | -0.0263 | -0.0963
6 | PRPF19_Q9UMS4_5+16_SLICSISNEVPEHPCVSPVSNHVYER (UniProt Q9UMS4) | -0.217 | -0.792
7 | PFAS_O15067_108_LNFSTPTSTNIVSVCR (UniProt O15067) | 0.148 | 0.224
8 | PRKD2_Q9BZL6_278_VPHTFLIHSYTRPTVCQACK (UniProt Q9BZL6) | -0.272 | 0.0117
9 | PECAM1_P16284_405_SNTVQIVVCEMLSQPR (UniProt P16284) | -0.029 | 0.11
10 | PLXNA1_Q9UIW2_1525_GLDCDTVTQAK (UniProt Q9UIW2) | -0.109 | -0.183
11 | PFKM_P08237_709_IFANTPDSGCVLGMR (UniProt P08237) | -0.24 | -0.19
12 | POLDIP3_Q9BY77_301_VTEEDIVELFCVCGALK (UniProt Q9BY77) | 0.113 | 0.0575
13 | PPIF_P30405_104_VIPSFMCQAGDFTNHNGTGGK (UniProt P30405) | 0.0126 | -0.0527
14 | PML_P29590_479+484_CSQTQCPR (UniProt P29590) | -0.122 | -0.364
15 | PPFIBP2_Q8ND30_837_KFDESTDYICPMEPSDGVSDSHR (UniProt Q8ND30) | -0.0603 | -0.214
16 | PRIM2_P49643_367_RTDYTPFSCLK (UniProt P49643) | -0.0349 | 0.0509
17 | PHF23_Q9BUL5-4_5_MPGDCR (UniProt Q9BUL5) | 1.01 | 1.12
18 | PIAS3_Q9Y6X2_620_EGHGGPLPSGPSLTGCR (UniProt Q9Y6X2) | 0.562 | 0.00823
19 | PPP3CA_Q08209_256_GCSYFYSYPAVCEFLQHNNLLSILR (UniProt Q08209) | -0.45 | -0.68
20 | PFAS_O15067_318_HVVFTAETHNFPTGVCPFSGATTGTGGR (UniProt O15067) | -0.104 | -0.163

Row | Target | probe-labelled cysteine peptide fold change (10 µM) | probe-labelled cysteine peptide fold change (50 µM)
21 | POP1_Q99575_777_EAEEVMDAGCQESAGPER (UniProt Q99575) | 0.0867 | -0.179
22 | PRKCB_P05771_71_QGFQCQVCCFVVHKR (UniProt P05771) | -0.248 | -0.0818
23 | PRPF3_O43395_37_RVLGFSEPTVVTAALNCVGK (UniProt O43395) | -0.604 | -0.0882
24 | PRKCI_P41743_157_AHCAICTDR (UniProt P41743) | 0.573 | 0.293
25 | POSTN_Q15063_44_GRDQGPNVCALQQILGTK (UniProt Q15063) | 0.664 | 0.513
26 | POLR2A_P24928_1407_HLALLCDTMTCR (UniProt P24928) | 0.0209 | 0.0484
27 | PRDX6_P30041_91_DINAYNCEEPTEK (UniProt P30041) | 0.103 | -0.0888
28 | PHF2_O75151_50_DWFHGSCVGVEEEEAPDIDIYHCPNCEK (UniProt O75151) | -0.131 | -0.185
29 | PEBP1_P30086_133_CDEPILSNR (UniProt P30086) | 0.116 | 0.0755
30 | PRKCD_Q05655_127_VLMSVQYFLEDVDCK (UniProt Q05655) | -0.0426 | -0.198
31 | PLA2G4C_Q9UP65_351_KTGICASK (UniProt Q9UP65) | -0.00842 | -0.032
32 | PLEC_Q15149_4254_CITDPQTGLCLLPLK (UniProt Q15149) | 0.107 | 0.575
33 | PFKFB3_Q16875_102_KQCALAALR (UniProt Q16875) | -0.148 | -0.24
34 | PGM3_O95394_93_LVDPLGEMLAPSWEEHATCLANAEEQDMQR (UniProt O95394) | 0.59 | 0.0508
35 | PNKP_Q96T60_353_SGPLCLPESR (UniProt Q96T60) | -0.182 | -0.149
36 | PDXDC1_Q6P996_425_HSCDALNR (UniProt Q6P996) | 0.0114 | -0.0777
37 | PRRC2B_Q5JSZ5_1121_EFARPEDCPR (UniProt Q5JSZ5) | -0.142 | -0.232
38 | PMS1_P54277_868_EVYECRPR (UniProt P54277) | -0.0515 | -0.0199
39 | PPP2R2A_P63151_13_AGAGGGNDIQWCFSQVK (UniProt P63151) | -0.0885 | -0.145
